Test results published in US20090306091A1, “ANTIMALARIAL THERAPY USING A COMBINATION OF SYNTHETIC ARTEMISININ DERIVATIVE AND BISQUINOLINE DERIVATIVE” (priority 2006, published 2009).

Test system: female rats
Assay: Embryo-fetal assessment study in female rats, oral administration (ICH guideline, GLP)
Type: in vivo, rat
Settings: female rats
Source text: Further, abnormal findings viz., interventricular septal defect (5 fetuses), aortic arch dilated (6 fetuses), ductus arteriosus and/or pulmonary trunk narrowed (5 fetuses), spleen reduced in size (4 fetuses) were noticed.

## CC(C)(N)CNC(=O)CC1CCC2(CC1)OOC1(O2)C2CC3CC(C2)CC1C3 (stereo not drawn)
All dose levels
  effects on fetal sex ratios, at fresh external examination or at skeletal examination: No test item-related effects
oral
  NOEL (no observed effect level) for maternal organisms and reproductive parameters: 30 mg/kg body weight/day
oral, 10, 30 and 90 mg/kg/day
  accumulation after repeated dosing: no accumulation
